The results in this text go back to publication PMC4336329 (PLoS ONE, 2015).

Structures are written as SMILES. The campaign covered roughly 310,000 compounds. About 14,000 (4.5%) showed an effect of 50% or more. Effects have a minus sign here. Some of the results follow.
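Also: peak tail current of the secondary pulse compared with the same well before compound.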

The target in this experiment is human ether-à-go-go-related gene (hERG) potassium channel (human, UniProt Q12809). Briefly: primary screen, population patch clamp on CHO cells stably expressing hERG.
human ether-à-go-go-related gene (hERG) potassium channel, sequence (Q12809 whole entry, looked up): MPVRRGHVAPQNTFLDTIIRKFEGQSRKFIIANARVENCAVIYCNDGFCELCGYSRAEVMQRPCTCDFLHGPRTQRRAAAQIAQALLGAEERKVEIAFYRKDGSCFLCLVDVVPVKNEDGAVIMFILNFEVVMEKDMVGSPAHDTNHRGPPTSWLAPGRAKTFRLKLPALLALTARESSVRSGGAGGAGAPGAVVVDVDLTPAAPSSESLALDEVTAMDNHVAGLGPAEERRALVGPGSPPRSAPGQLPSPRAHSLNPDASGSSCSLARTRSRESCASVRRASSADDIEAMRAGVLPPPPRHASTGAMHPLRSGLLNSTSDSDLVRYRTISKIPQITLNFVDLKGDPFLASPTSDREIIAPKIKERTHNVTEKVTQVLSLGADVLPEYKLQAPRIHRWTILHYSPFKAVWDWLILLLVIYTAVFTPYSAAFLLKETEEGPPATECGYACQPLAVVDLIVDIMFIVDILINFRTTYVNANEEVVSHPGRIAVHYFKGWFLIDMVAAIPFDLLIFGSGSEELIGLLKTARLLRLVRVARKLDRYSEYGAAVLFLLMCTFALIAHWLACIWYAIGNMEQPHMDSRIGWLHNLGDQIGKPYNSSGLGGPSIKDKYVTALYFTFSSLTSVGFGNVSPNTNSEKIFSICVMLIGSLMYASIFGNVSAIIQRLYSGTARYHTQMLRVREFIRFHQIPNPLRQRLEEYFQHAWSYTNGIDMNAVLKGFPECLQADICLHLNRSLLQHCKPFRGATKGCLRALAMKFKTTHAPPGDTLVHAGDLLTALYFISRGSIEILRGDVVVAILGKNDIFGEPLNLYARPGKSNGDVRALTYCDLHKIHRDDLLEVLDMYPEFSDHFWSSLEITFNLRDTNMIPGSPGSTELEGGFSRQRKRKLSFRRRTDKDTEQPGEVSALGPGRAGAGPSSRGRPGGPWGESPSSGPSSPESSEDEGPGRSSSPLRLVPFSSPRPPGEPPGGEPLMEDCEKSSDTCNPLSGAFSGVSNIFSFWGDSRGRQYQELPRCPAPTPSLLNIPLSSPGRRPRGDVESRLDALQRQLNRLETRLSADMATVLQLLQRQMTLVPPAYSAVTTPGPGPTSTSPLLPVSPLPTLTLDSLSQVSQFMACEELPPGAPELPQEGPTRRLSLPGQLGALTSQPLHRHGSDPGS
Consider `Cc1ccc(NC(=O)C(=O)NCc2ccc(/C=N/NC(=O)c3c(C)nc4cc(C)ccn34)o2)cc1`, for which the “hERG current change (%, negative = inhibition) at 10uM” value was -64%. In the case of `Cc1noc(C)c1-c1ccc2nc[nH]c(=O)c2c1`, the “hERG current change (%, negative = inhibition) at 10uM” value is listed as -9.5%. `Cc1ccsc1C(=O)NNC(=S)NC1CCCCC1`: the “hERG current change (%, negative = inhibition) at 10uM” value was 17.2%. Take `COc1ccc(N2C(=O)CSC2c2ccc3c(c2)OCO3)cc1` (stereo not drawn): the “hERG current change (%, negative = inhibition) at 10uM” value is -8.17%. Then `CC1(C)CC(=O)C(C=Nc2ccc3[nH]ncc3c2)=C(O)C1`, with -12.3%.

On to `CCOc1c(Br)cc(C2NC(=O)CCC2[N+](=O)[O-])cc1OC` (stereo not drawn), for which the “hERG current change (%, negative = inhibition) at 10uM” value worked out at 4.34%.

On to `CCn1c(COc2ccccc2OC)nnc1SCC#N`, for which the “hERG current change (%, negative = inhibition) at 10uM” value is reported as -3.43%. `Cc1nc2nc(SCC(N)=O)[nH]c2cc1Br`: the “hERG current change (%, negative = inhibition) at 10uM” value is 15.9%. With `COc1ccc(CCN2C(=O)N[C@@H](CCC(=O)O)C2=O)cc1`, the “hERG current change (%, negative = inhibition) at 10uM” value was 19%. For the molecule `O=C(CCSc1nnc2ccccn12)Nc1ccc2c(c1)OCO2`, the “hERG current change (%, negative = inhibition) at 10uM” value is reported as 16.3%. Take `Cc1ccc(C(C)(C)C)cc1S(=O)(=O)N1CC(=O)Nc2ccccc21`: the “hERG current change (%, negative = inhibition) at 10uM” value was -14.3%. On to `CCOC(=O)c1c(-c2ccccc2)cn2ccccc12`, for which the “hERG current change (%, negative = inhibition) at 10uM” value was -16.5%. With `CC(=O)O[C@H]1CC[C@@]2(C)C(CCC3C2CC[C@]2(C)OC(=O)CCC32)C1` (stereo partly drawn), the “hERG current change (%, negative = inhibition) at 10uM” value is given as -10.7%. `CC(=O)NCCc1ccc(S(=O)(=O)NC2OC(=O)c3ccccc32)cc1` (stereo not drawn): the “hERG current change (%, negative = inhibition) at 10uM” value is listed as -3.77%. As for `CCOC(=O)/C(=N\Nc1cc(Cl)ccc1Cl)N1CCN(C)CC1`, the “hERG current change (%, negative = inhibition) at 10uM” value is -16.9%. For the molecule `COc1cccc(NC(=O)c2cccnc2)c1`, the “hERG current change (%, negative = inhibition) at 10uM” value was determined as 11.2%.

`Cn1nnc(NC(=O)COc2ccc(C3CCCCC3)cc2)n1`: the “hERG current change (%, negative = inhibition) at 10uM” value was -36.4%. Next, `CCCNC(=O)c1onc(CSc2ccc(F)cc2)c1C(=O)NCCOC`: -14.6%; `Cc1nn(Cc2ccccc2Cl)c(C)c1C(=O)OCC(=O)N1CC(C)OC(C)C1` (stereo not drawn): 1.43%.

For `O=C(CNC1CCCCC1)Nc1ccc(S(=O)(=O)N2CCCCC2)cc1`, the “hERG current change (%, negative = inhibition) at 10uM” value came out at 2.13%. Regarding `CCN(CC)C(=O)CNC(=O)Cc1ccc(Cl)cc1`, the “hERG current change (%, negative = inhibition) at 10uM” value is on record as -9.62%. On to `CC(C)n1c(=O)c2c(O)cc(=O)oc2c2ccccc21`, for which the “hERG current change (%, negative = inhibition) at 10uM” value is listed as -20.7%.

As to `Cc1cccc(S(=O)(=O)N(CC(=O)Nc2ccccc2C)Cc2ccco2)c1`, the “hERG current change (%, negative = inhibition) at 10uM” value is -40.7%.

As for `CCCc1cc(=O)oc2c3c(cc(OCC(=O)N[C@@H](CSC)C(=O)O)c12)OC(C)(C)CC3`, the “hERG current change (%, negative = inhibition) at 10uM” value is listed as 17.3%.

For the molecule `Cc1ccc(CSc2nnc(C)c(=O)n2N)cc1`, the “hERG current change (%, negative = inhibition) at 10uM” value worked out at 5.84%.

In the case of `COc1ccc(CCNC(=O)c2coc3ccccc3c2=O)cc1OC`, the “hERG current change (%, negative = inhibition) at 10uM” value is -4.09%.

As to `Cc1ccc(S(=O)(=O)N(C)CC(=O)OCC(=O)NCCN2C(=O)CSC2=O)cc1`, the “hERG current change (%, negative = inhibition) at 10uM” value is -9.67%. In the case of `CCOc1ccccc1NC(=O)N1CCCC1C(=O)Nc1nnc(CC)s1` (stereo not drawn), the “hERG current change (%, negative = inhibition) at 10uM” value is recorded as -9.09%. Regarding `CCOC(=O)CC(Nc1nc(N2CCOCC2)nc(N2CCOCC2)n1)c1ccccc1Cl` (stereo not drawn), the “hERG current change (%, negative = inhibition) at 10uM” value was -5.21%. With `Cc1nn(-c2ccccc2)c(C)c1-c1cc(C(=O)N/N=C/c2cccnc2)[nH]n1`, the “hERG current change (%, negative = inhibition) at 10uM” value is reported as -18.7%.

Regarding `CSc1ncc(Cl)c(C(=O)Nc2ccc(S(=O)(=O)N3CCOCC3)cc2)n1`, the “hERG current change (%, negative = inhibition) at 10uM” value is reported as -1.86%.

Take `CC(C)C(=O)Nc1cccc2nsnc12`: the “hERG current change (%, negative = inhibition) at 10uM” value turned out to be 12.6%. In the case of `Cc1cccc(NC(=O)C(C)Sc2nnc(-c3cccnc3)o2)c1` (stereo not drawn), the “hERG current change (%, negative = inhibition) at 10uM” value is reported as 3.15%. Take `O=C(N/C(=C\c1ccccc1)C(=O)N1CCN(CCO)CC1)c1ccccc1`: the “hERG current change (%, negative = inhibition) at 10uM” value was -42.9%.

Take `Cc1ccc(C)c(S(=O)(=O)ON2C(=O)c3ccccc3C2=O)c1`: the “hERG current change (%, negative = inhibition) at 10uM” value was determined as 14%. In the case of `Cc1sc2nc(-c3ccco3)oc(=O)c2c1C`, the “hERG current change (%, negative = inhibition) at 10uM” value is recorded as 6.66%.

Take `O=C(CS(=O)c1ccc(C(F)(F)F)cc1[N+](=O)[O-])Oc1ccccc1` (stereo not drawn): the “hERG current change (%, negative = inhibition) at 10uM” value was determined as 17.2%. For `O=C(CN1C(=O)c2ccccc2C1=O)OCC(=O)c1ccccc1`, the “hERG current change (%, negative = inhibition) at 10uM” value was -11%. Consider `CC1(C)Cc2c(sc3[nH]c(=O)n(CC(=O)NCC4CCCO4)c(=O)c23)CO1` (stereo not drawn), for which the “hERG current change (%, negative = inhibition) at 10uM” value was found to be 20.5%. As to `CC(C)CC(O)(c1ccccc1)C(CN1CCOCC1)c1ccccc1.Cl` (stereo not drawn), the “hERG current change (%, negative = inhibition) at 10uM” value was found to be 14.7%.

Turning to `COc1cccc(NC(=O)COC(=O)c2c(F)cccc2Cl)c1`, the “hERG current change (%, negative = inhibition) at 10uM” value amounted to 1.71%. Turning to `CCCCCN1CC(O)=C(c2nc3ccccc3[nH]2)C1=N`, the “hERG current change (%, negative = inhibition) at 10uM” value is on record as 11.8%. For the molecule `C=CCn1c(N)cc(=O)nc1SCC(=O)Nc1ccc(C(=O)OC)cc1`, the “hERG current change (%, negative = inhibition) at 10uM” value was -21%. Next, `CC(=O)N1CCN(C(=O)c2ccc(S(=O)(=O)Nc3cccc(C(F)(F)F)c3)cc2)CC1`: 4.85%; `COC(=O)c1cccc(NC(=O)Cn2nnc3ccccc32)c1`: 0.234%; `CCOC(=O)Cc1csc(N/N=C/c2cccc([N+](=O)[O-])c2)n1`: 6.24%.

As for `Cc1ccc2c(c1)N(CC(=O)N1CCCCCC1)C(=O)c1cccnc1O2`, the “hERG current change (%, negative = inhibition) at 10uM” value is given as -2.14%.

For `O=C(c1cnn(-c2ccccc2)c1-n1cccc1)N1CCN(C2CCCCC2)CC1`, the “hERG current change (%, negative = inhibition) at 10uM” value is given as -67.2%. Consider `COCCNC(=O)C1=NOC(Cn2cc(C#N)c(=O)n(C)c2=O)C1` (stereo not drawn), for which the “hERG current change (%, negative = inhibition) at 10uM” value is listed as 34.2%. Take `O=C(O)c1ccc(S(=O)(=O)N2CCN(c3ccccn3)CC2)cc1`: the “hERG current change (%, negative = inhibition) at 10uM” value came to 19.3%.

On to `O=C(N/N=C/c1ccncc1)c1nn(Cc2ccccc2)c(=O)c2ccccc12`, for which the “hERG current change (%, negative = inhibition) at 10uM” value was -0.0913%.

In the case of `N#CCCN(C(=O)CSc1ccc2c(c1)OCCO2)c1ccccc1`, the “hERG current change (%, negative = inhibition) at 10uM” value was -2.35%.

On to `Cc1ccc(S(=O)(=O)c2nc(S(=O)(=O)c3ccccc3)sc2N2CCN(CCO)CC2)cc1`, for which the “hERG current change (%, negative = inhibition) at 10uM” value is recorded as -40.6%. Regarding `C=CCn1c(Cc2c[nH]c3ccccc23)n[nH]c1=S`, the “hERG current change (%, negative = inhibition) at 10uM” value was 10.8%.

Regarding `O=C(NCc1ccccc1)C1=C[C@@H](c2csc3ccccc23)C[C@@H](OCCCCO)O1`, the “hERG current change (%, negative = inhibition) at 10uM” value is given as -69%. Then `O=C(CCn1c(=S)oc2ccccc21)Nc1cccc(F)c1`, with 8.26%. With `Cc1c(CN2CCC(CO)(Cc3cccc(C(F)(F)F)c3)CC2)c2ccccc2n1C`, the “hERG current change (%, negative = inhibition) at 10uM” value is -47.2%.
